{"source": "patent US5229379A", "about": "“Certain N-substituted-amino-alkane phosphinic acid derivatives having anti-epileptic properties” (priority 1990, dated 1993)", "system": "\"spike and wave\" discharges in epileptic rats (male Wistar rats of the Strasbourg colony)", "assay": "Inhibition of spike and wave discharges in epileptic rats (absence epilepsy model)", "format": "in vivo, rat", "conditions": "mean ± SEM, 6 rats", "source_text": "Synchronous \"spike and wave\" discharges (SWD; frontopariental cortex; 7-8 Hz; 300-1000 μV, duration 0.5 to 40 s, mean value=6.0±3.4 s) and frequently myoclonia facialis accompany a cessation of behaviour. These absence-like conditions occur spontaneously and repeatedly. […] In contrast, a strain could be reared in which 100% of the rats are SWD-free (control rats). This pharmacological model is described in Vergnes M., Marescaux C., Micheletti G., Reis J., Depaulis A., Rumbach L. and Warter J. M., Neurosci. Lett. 33. 97-101 (1982).\nIn this model, for example, the clinically used anti-epileptics ethosuximide, diazepam, trimethadione and sodium valproate in doses≥25 mg/kg (ethosuximide),≥0.5 mg/kg (diazepam) and≥50 mg/kg (trimethadione and sodium valproate) reduce the spike and wave discharges in dose-dependent manner. […] Phenobarbital is effective at from 2.5 to 10 mg/kg and is ineffective at 20 mg/kg. The action of these anti-epileptics on the crises in rats and absences in humans supports the hypothesis that this animal model represents a pharmacological model for absence epilepsy. Its predictive value appears to be at least as good as that of other customary animal models.\nThe action of GABAB -antagonists was tested on male Wistar rats (300-400 g) of the Strasbourg colony. […] The rats received water and food ad libidum, and the light/dark cycle was 12/12 hours. The rats were anaesthetised with pentobarbital (40 mg/kg i.p.) and implanted bilaterally with 4 stainless steel electrodes (two in the frontal cortex and two in the parietal cortex). The rats were used for experiments no sooner than one week after the operation.\nThe rats, which were freely mobile, were accommodated in a Plexiglass cage (17×17×28 cm) (one rat per cage), and, after a 15-minute period for adaptation to the new surroundings, the EEG was recorded over a period of 20 minutes (reference period). The reference line for the particular test series is thus obtained. A GABAB -antagonist was then administered and the EEG was recorded over a period of from 120 to 180 minutes. The rats were kept under constant observation during this period and prevented from falling asleep by gentle manual contact.\nThe test compound was dissolved in 0.9% sodium chloride solution and injected in doses of 50, 100, 200 and 400 mg/kg i.p.. Alternatively, the test compound may be administered in a polyethylene glycol, such as Tween® 80, (2 drops/10 ml of suspension of the test compound in 0.9% sodium chloride solution; the suspension is homogenised at 40° for 10 minutes by means of ultrasound, injection volume: 2 ml/kg) i.p. or by means of a stomach probe p.o.. Test compounds that are soluble with difficulty are advantageously administered in solution in a mixture of dimethyl sulfoxide (not more than 10% by volume) and 0.9% sodium chloride solution or in 45% aqueous hydroxypropyl-β-cyclodextrin solution. Each animal is treated with all doses in a randomised sequence. The time between two treatments should be at least 5 days. The mean values ±SEM of the sum total duration of the \"spike and wave\" discharges of 6 rats over a period of 20 minutes are recorded.\nThe sum total duration of the spike and wave discharges (in seconds) is measured for each 20-minute period of the EEG recording. Comparisons between the treatment and the reference period are carried out by means of non-parametric variance analysis of the groups concerned (Friedman test). The control group and the treated groups are compared by means of the Wilcoxon test only when a significant difference between the two groups is found in the Friedmann test. The significances of the differences according to Wilcoxon between doses marked by an asteriks and dose 0 corresponds to p<0,005.", "key": {"[1]": {"conditions": "i.p. 100 mg/kg, period 0-20 min"}, "[2]": {"conditions": "i.p. 100 mg/kg, period 20-40 min"}, "[3]": {"conditions": "i.p. 100 mg/kg, period 40-60 min"}, "[4]": {"conditions": "i.p. 100 mg/kg, period 60-80 min"}, "[5]": {"conditions": "i.p. 100 mg/kg, period 80-100 min"}, "[6]": {"conditions": "i.p. 100 mg/kg, period 100-120 min"}, "[7]": {"conditions": "i.p. 200 mg/kg, period 0-20 min"}, "[8]": {"conditions": "i.p. 200 mg/kg, period 20-40 min"}, "[9]": {"conditions": "i.p. 200 mg/kg, period 40-60 min"}, "[10]": {"conditions": "i.p. 200 mg/kg, period 60-80 min"}, "[11]": {"conditions": "i.p. 200 mg/kg, period 80-100 min"}, "[12]": {"conditions": "i.p. 200 mg/kg, period 100-120 min"}}, "note": "At least one read-out could not be matched to a standard name with certainty.", "data": [{"smiles": "NCC(O)CP(=O)(O)CC1CCCCC1", "note": "(stereo not shown) [3-amino-2-hydroxypropyl(cyclohexylmethyl)phosphinic acid]", "values": [{"measurement": "sum total duration of the spike and wave discharges", "setting": "i.p. 25 mg/kg, period 0-20 min", "result": "240 ± 67", "unit": "s"}, {"measurement": "sum total duration of the spike and wave discharges", "setting": "i.p. 25 mg/kg, period 20-40 min", "result": "78 ± 47", "unit": "s"}, {"measurement": "sum total duration of the spike and wave discharges", "setting": "i.p. 25 mg/kg, period 40-60 min", "result": "27 ± 8", "unit": "s"}, {"measurement": "sum total duration of the spike and wave discharges", "setting": "i.p. 25 mg/kg, period 60-80 min", "result": "35 ± 20", "unit": "s"}, {"measurement": "sum total duration of the spike and wave discharges", "setting": "i.p. 25 mg/kg, period 80-100 min", "result": "6 ± 2", "unit": "s"}, {"measurement": "sum total duration of the spike and wave discharges", "setting": "i.p. 25 mg/kg, period 100-120 min", "result": "29 ± 14", "unit": "s"}, {"measurement": "sum total duration of the spike and wave discharges", "setting": "i.p. 50 mg/kg, period 0-20 min", "result": "192 ± 50", "unit": "s"}, {"measurement": "sum total duration of the spike and wave discharges", "setting": "i.p. 50 mg/kg, period 20-40 min", "result": "82 ± 44", "unit": "s"}, {"measurement": "sum total duration of the spike and wave discharges", "setting": "i.p. 50 mg/kg, period 40-60 min", "result": "21 ± 9", "unit": "s"}, {"measurement": "sum total duration of the spike and wave discharges", "setting": "i.p. 50 mg/kg, period 60-80 min", "result": "8 ± 3", "unit": "s"}, {"measurement": "sum total duration of the spike and wave discharges", "setting": "i.p. 50 mg/kg, period 80-100 min", "result": "15 ± 5", "unit": "s"}, {"measurement": "sum total duration of the spike and wave discharges", "setting": "i.p. 50 mg/kg, period 100-120 min", "result": "13 ± 5", "unit": "s"}, {"measurement": "sum total duration of the spike and wave discharges", "setting": "[1]", "result": "98 ± 43", "unit": "s"}, {"measurement": "sum total duration of the spike and wave discharges", "setting": "[2]", "result": "41 ± 29", "unit": "s"}, {"measurement": "sum total duration of the spike and wave discharges", "setting": "[3]", "result": "40 ± 39", "unit": "s"}, {"measurement": "sum total duration of the spike and wave discharges", "setting": "[4]", "result": "16 ± 16", "unit": "s"}, {"measurement": "sum total duration of the spike and wave discharges", "setting": "[5]", "result": "16 ± 16", "unit": "s"}, {"measurement": "sum total duration of the spike and wave discharges", "setting": "[6]", "result": "17 ± 17", "unit": "s"}, {"measurement": "sum total duration of the spike and wave discharges", "setting": "[7]", "result": "7 ± 7", "unit": "s"}, {"measurement": "sum total duration of the spike and wave discharges", "setting": "[8]", "result": "0 ± 0", "unit": "s"}, {"measurement": "sum total duration of the spike and wave discharges", "setting": "[9]", "result": "1 ± 1", "unit": "s"}, {"measurement": "sum total duration of the spike and wave discharges", "setting": "[10]", "result": "1 ± 1", "unit": "s"}, {"measurement": "sum total duration of the spike and wave discharges", "setting": "[11]", "result": "0 ± 0", "unit": "s"}, {"measurement": "sum total duration of the spike and wave discharges", "setting": "[12]", "result": "0 ± 0", "unit": "s"}, {"measurement": "sum total duration of the spike and wave discharges", "setting": "i.p. 400 mg/kg, period 0-20 min", "result": "7 ± 5", "unit": "s"}, {"measurement": "sum total duration of the spike and wave discharges", "setting": "i.p. 400 mg/kg, period 20-40 min", "result": "0 ± 0", "unit": "s"}, {"measurement": "sum total duration of the spike and wave discharges", "setting": "i.p. 400 mg/kg, period 40-60 min", "result": "1 ± 1", "unit": "s"}, {"measurement": "sum total duration of the spike and wave discharges", "setting": "i.p. 400 mg/kg, period 60-80 min", "result": "3 ± 3", "unit": "s"}, {"measurement": "sum total duration of the spike and wave discharges", "setting": "i.p. 400 mg/kg, period 80-100 min", "result": "5 ± 5", "unit": "s"}, {"measurement": "sum total duration of the spike and wave discharges", "setting": "i.p. 400 mg/kg, period 100-120 min", "result": "5 ± 5", "unit": "s"}, {"measurement": "sum total duration of the spike and wave discharges", "setting": "p.o. 300 mg/kg, period 0-20 min", "result": "176 ± 61", "unit": "s"}, {"measurement": "sum total duration of the spike and wave discharges", "setting": "p.o. 300 mg/kg, period 20-40 min", "result": "103 ± 42", "unit": "s"}, {"measurement": "sum total duration of the spike and wave discharges", "setting": "p.o. 300 mg/kg, period 40-60 min", "result": "95 ± 33", "unit": "s"}, {"measurement": "sum total duration of the spike and wave discharges", "setting": "p.o. 300 mg/kg, period 60-80 min", "result": "73 ± 22", "unit": "s"}, {"measurement": "sum total duration of the spike and wave discharges", "setting": "p.o. 300 mg/kg, period 80-100 min", "result": "46 ± 14", "unit": "s"}, {"measurement": "sum total duration of the spike and wave discharges", "setting": "p.o. 300 mg/kg, period 100-120 min", "result": "19 ± 12", "unit": "s"}, {"measurement": "sum total duration of the spike and wave discharges", "setting": "p.o. 300 mg/kg, period 120-140 min", "result": "73 ± 55", "unit": "s"}, {"measurement": "sum total duration of the spike and wave discharges", "setting": "p.o. 300 mg/kg, period 140-160 min", "result": "4 ± 4", "unit": "s"}, {"measurement": "sum total duration of the spike and wave discharges", "setting": "p.o. 500 mg/kg, period 0-20 min", "result": "105 ± 29", "unit": "s"}, {"measurement": "sum total duration of the spike and wave discharges", "setting": "p.o. 500 mg/kg, period 20-40 min", "result": "149 ± 43", "unit": "s"}, {"measurement": "sum total duration of the spike and wave discharges", "setting": "p.o. 500 mg/kg, period 40-60 min", "result": "117 ± 26", "unit": "s"}, {"measurement": "sum total duration of the spike and wave discharges", "setting": "p.o. 500 mg/kg, period 60-80 min", "result": "104 ± 26", "unit": "s"}, {"measurement": "sum total duration of the spike and wave discharges", "setting": "p.o. 500 mg/kg, period 80-100 min", "result": "56 ± 30", "unit": "s"}, {"measurement": "sum total duration of the spike and wave discharges", "setting": "p.o. 500 mg/kg, period 100-120 min", "result": "32 ± 12", "unit": "s"}, {"measurement": "sum total duration of the spike and wave discharges", "setting": "p.o. 500 mg/kg, period 120-140 min", "result": "40 ± 13", "unit": "s"}, {"measurement": "sum total duration of the spike and wave discharges", "setting": "p.o. 500 mg/kg, period 140-160 min", "result": "5 ± 4", "unit": "s"}]}, {"smiles": "CCCC(F)(F)P(=O)(O)CCCN", "note": "[3-aminopropyl(1,1-difluorobutyl)phosphinic acid]", "values": [{"measurement": "sum total duration of the spike and wave discharges", "setting": "[1]", "result": "145 ± 57", "unit": "s"}, {"measurement": "sum total duration of the spike and wave discharges", "setting": "[2]", "result": 63, "unit": "s"}, {"measurement": "sum total duration of the spike and wave discharges", "setting": "[3]", "result": "56 ± 27", "unit": "s"}, {"measurement": "sum total duration of the spike and wave discharges", "setting": "[4]", "result": "99 ± 46", "unit": "s"}, {"measurement": "sum total duration of the spike and wave discharges", "setting": "[5]", "result": "87 ± 47", "unit": "s"}, {"measurement": "sum total duration of the spike and wave discharges", "setting": "[6]", "result": "36 ± 23", "unit": "s"}, {"measurement": "sum total duration of the spike and wave discharges", "setting": "[7]", "result": "219 ± 61", "unit": "s"}, {"measurement": "sum total duration of the spike and wave discharges", "setting": "[8]", "result": "71 ± 33", "unit": "s"}, {"measurement": "sum total duration of the spike and wave discharges", "setting": "[9]", "result": "47 ± 18", "unit": "s"}, {"measurement": "sum total duration of the spike and wave discharges", "setting": "[10]", "result": "16 ± 11", "unit": "s"}, {"measurement": "sum total duration of the spike and wave discharges", "setting": "[11]", "result": "14 ± 13", "unit": "s"}, {"measurement": "sum total duration of the spike and wave discharges", "setting": "[12]", "result": "18 ± 10", "unit": "s"}]}]}
